Measured values as given in PMC6919601, “Identification of Plasmodium dipeptidyl aminopeptidase allosteric inhibitors by high throughput screening” (PLoS ONE, 2019).
The whole screen tested about 110,000 compounds, of which about 230 (0.21%) showed an effect of 50% or more. This is one part of the list.

molecular target: DPAP1 (Plasmodium falciparum, UniProt Q8IIJ9); experiment: primary screen, percent inhibition; read by cleavage of a fluorogenic dipeptide substrate; higher = more effect of the substance; set-up: species or system P. falciparum D10 trophozoite lysates; single well
Sequence (Q8IIJ9 whole entry, looked up): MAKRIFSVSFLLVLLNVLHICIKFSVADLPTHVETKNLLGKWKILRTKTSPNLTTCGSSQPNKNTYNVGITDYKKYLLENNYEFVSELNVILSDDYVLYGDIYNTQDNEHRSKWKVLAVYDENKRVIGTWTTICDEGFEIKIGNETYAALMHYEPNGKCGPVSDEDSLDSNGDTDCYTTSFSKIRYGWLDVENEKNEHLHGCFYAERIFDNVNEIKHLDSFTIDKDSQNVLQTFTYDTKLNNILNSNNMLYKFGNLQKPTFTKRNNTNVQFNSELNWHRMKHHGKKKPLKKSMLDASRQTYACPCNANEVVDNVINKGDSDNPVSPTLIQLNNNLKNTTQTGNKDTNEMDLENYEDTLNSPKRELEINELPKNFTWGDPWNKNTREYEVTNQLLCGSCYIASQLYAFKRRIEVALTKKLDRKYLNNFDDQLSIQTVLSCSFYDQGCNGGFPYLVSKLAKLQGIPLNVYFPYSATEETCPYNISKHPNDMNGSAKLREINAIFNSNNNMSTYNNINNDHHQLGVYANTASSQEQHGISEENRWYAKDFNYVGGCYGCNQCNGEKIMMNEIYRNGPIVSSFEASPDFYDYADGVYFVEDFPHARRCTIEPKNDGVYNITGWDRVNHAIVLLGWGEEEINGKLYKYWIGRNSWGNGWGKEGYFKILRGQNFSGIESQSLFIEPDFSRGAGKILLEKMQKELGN
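Note: 30 min substrate incubation versus DMSO and 10 µM JCP410 controls.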

Compared with `O=C(c1cc2c3c(c1O)CCCN3CCC2)C(F)(F)F`, `CCOC(=O)c1c(NC(=O)CN2CCCCCC2)sc2c1CCC2` is higher in “% Inhibition @ 10 uM” value: -9.33% for the first, 1.42% for the second.

First: O=C(COc1ccc(Cl)cc1)Nc1ccc(S(=O)(=O)N2CCOCC2)cc1
Second: O=C(NCc1ccc(Cl)cc1)C1CC(=O)N(c2ccc(OCC(=O)N3CCCC3)cc2)C1 (centres unmarked)
The “% Inhibition @ 10 uM” value of the first is higher: -2.24% for the first, -4.14% for the second.

First: O=C(CCN1C(=O)c2ccccc2S1(=O)=O)Nc1ccccc1O
Second: O=C(Cn1nnc2ccccc2c1=O)c1ccccc1Cl
The “% Inhibition @ 10 uM” value of the first is higher: 3.17% for the first, -2.05% for the second.

First: COc1cc2c(cc1OC)C1=C(C#N)CN(CCO)CN1CC2
Second: COc1ccc(C2N3CC4(C)CN2CC(C)(C3)C4)cc1OC (centres unmarked)
The “% Inhibition @ 10 uM” value of the first is lower: -2.45% for the first, 4.84% for the second.

Going from `Clc1ccccc1Cc1nn[nH]n1` to `N=C(N)Nc1nc2ccccc2s1`, the “% Inhibition @ 10 uM” value falls from 3.99% to -2.51%.

Going from `CCOC(=O)C1=C(CS(=O)(=O)c2ccc(C)cc2)NC(=O)NC1c1ccc(OC)cc1OC` (centres unmarked) to `COc1ccc(N(CC(=O)Nc2ccc3c(c2)OCO3)S(=O)(=O)c2ccc(C)cc2)cc1OC`, the “% Inhibition @ 10 uM” value rises from -2.16% to -0.469%.

Compared with `COc1cccc(C2=CC(c3ccccc3C)n3nnnc3N2)c1` (centres unmarked), `COc1ccc(NC(=O)C2=C(C)Nc3nc(-c4cccs4)nn3C2c2ccccc2OC)cc1` (centres unmarked) is higher in “% Inhibition @ 10 uM” value: -9.03% for the first, 10.8% for the second.

Compared with `COc1ccc(-c2noc(NCCc3c[nH]c4ccccc34)n2)cc1`, `COc1ccccc1CCNC(=O)c1nc(-c2ccc(-n3cccc3)cc2)no1` is higher in “% Inhibition @ 10 uM” value: -1.44% for the first, 0.895% for the second.

First: O=C(Cn1c2c(c(-c3ccccc3)cc1=O)CCCC2)NCc1ccc(F)cc1
Second: O=C(NCc1cccnc1)c1cc(-c2cccnc2)nc2ccccc12
The “% Inhibition @ 10 uM” value of the first is higher: 4.47% for the first, -4.06% for the second.

Compared with `CC1=C(C(=O)Nc2cc(C)ccn2)C(c2ccc(F)cc2)C2=C(O)CC(C)(C)CC2=N1` (centres unmarked), `CO/C(O)=C1/C(C)=NC2=C(C(=O)CC(c3ccccc3)C2)C1c1ccc(N(C)C)cc1` (centres unmarked) is higher in “% Inhibition @ 10 uM” value: -6.36% for the first, 5.01% for the second.

Compared with `COc1ccccc1N1C(=O)c2ccc(S(=O)(=O)c3ccc(C(=O)O)cc3)cc2C1=O`, `CC(=O)Nc1cccc(NC(=O)c2ccc(-c3ccccc3)cc2)c1` is lower in “% Inhibition @ 10 uM” value: 5.17% for the first, -1.94% for the second.

Compared with `O=C(NCCc1c[nH]c2ccccc12)c1nsc(Cl)c1Cl`, `Cc1c(C)n(Cc2ccccc2)c2ccc(C(=O)NCCCOC(C)C)cc12` is lower in “% Inhibition @ 10 uM” value: 0.415% for the first, -2.65% for the second.

First: CCOc1ccccc1CNCc1c(C(=O)O)[nH]c2cc(OC)ccc12
Second: COc1cc(CCNCc2c(C(=O)O)n(Cc3ccccc3F)c3ccccc23)cc(OC)c1OC
The “% Inhibition @ 10 uM” value of the first is lower: -4.46% for the first, 7.44% for the second.

Compared with `O=[N+]([O-])c1ccc(Oc2ccc(S(=O)(=O)NC3CCCCC3)cc2)cc1`, `Nc1ccc(NC2=C(N3CCCCC3)C(=O)c3ccccc3C2=O)cc1` is higher in “% Inhibition @ 10 uM” value: -6.22% for the first, 53.5% for the second.

Compared with `CCOc1cc2c(cc1OCC)C(c1ccc(F)cc1)NCC2` (centres unmarked), `CCOc1cc(C(=O)Nc2nccs2)cc(OCC)c1OCC` is lower in “% Inhibition @ 10 uM” value: -0.891% for the first, -5.79% for the second.

First: N#Cc1cc2c(nc1SCC(=O)NCc1ccc3c(c1)OCO3)C1CCN2CC1
Second: C=CCn1c(SCC(=O)Nc2ccc3c(c2)OCO3)nc2scc(-c3ccc(C)o3)c2c1=O
The “% Inhibition @ 10 uM” value of the first is higher: 6.31% for the first, 5.66% for the second.

Going from `COCCNc1nc2ccccc2c2nc(CCn3c(C)nc4ccccc43)nn12` to `Cn1c(C(=O)O)c(CNCCCN2CCC(Cc3ccccc3)CC2)c2ccccc21`, the “% Inhibition @ 10 uM” value falls from -3.13% to -3.21%.

Going from `Cc1cc(=O)oc2cc(OCc3ccccc3)c(O)cc12` to `Cc1c(CCC(=O)NCc2ccccc2)c(=O)oc2c(C)c(O)ccc12`, the “% Inhibition @ 10 uM” value rises from 2.94% to 4.13%.

First: Nc1ccc2nc(-c3cccc(Cl)c3)oc2c1
Second: c1ccc(-c2cc(-c3cc(-c4ccccc4)[nH]n3)[nH]n2)cc1
The “% Inhibition @ 10 uM” value of the first is higher: 4.41% for the first, -2.63% for the second.

Going from `CCOc1ccc2nc(N3CCC(C(=O)N4CCOCC4)CC3)sc2c1` to `CCn1c2ccccc2c2nnc(N3CCC(C(N)=O)CC3)nc21`, the “% Inhibition @ 10 uM” value falls from 3.4% to -3.1%.

First: CCN1CCN(Cc2ccc(Cl)cc2)CC1
Second: CC(=O)N1CCN(Cc2ccccc2)CC1
The “% Inhibition @ 10 uM” value of the first is lower: -5.57% for the first, 1.9% for the second.

Going from `CCN(CC)c1ncnc2c1c(-c1ccccc1)cn2-c1ccc(OC)cc1` to `COc1ccccc1C1CN(c2ccc(Cl)cc2)N=C1c1cccs1` (centres unmarked), the “% Inhibition @ 10 uM” value falls from 4.46% to -6.12%.

Going from `COc1ccc(-c2cn3c(n2)sc2cc(C(=O)N4CCN(C(=O)c5ccco5)CC4)ccc23)cc1` to `CN1CCN(C(=O)c2ccc(-c3nn(C)c(=O)c4ccccc34)cc2)CC1`, the “% Inhibition @ 10 uM” value falls from 32.5% to -1.11%.

First: O=C(Nc1ccccc1)Nc1ccc(N2CCOCC2)cc1
Second: O=C(Nc1ccc(N2CCOCC2)cc1)c1nc[nH]n1
The “% Inhibition @ 10 uM” value of the first is higher: 6.21% for the first, 1.87% for the second.

First: N#Cc1c(O)ncc2c1N(Cc1ccccc1)CC2
Second: O=C(Cn1ncc2ccsc2c1=O)N1CCC(Cc2ccccc2)CC1
The “% Inhibition @ 10 uM” value of the first is higher: -1.42% for the first, -6.52% for the second.

Compared with `CCC1CCC(N2CCN(c3ccc([N+](=O)[O-])cc3)CC2)CC1` (centres unmarked), `c1ccc(N2CCN(C3CCSC3)CC2)cc1` (centres unmarked) is higher in “% Inhibition @ 10 uM” value: -4.04% for the first, 0.565% for the second.

Going from `Cc1ccccc1/C=C1/SC(=O)NC1=O` to `Cc1ccsc1/C=C1/SC(=O)N(CC(=O)N2CCCC2)C1=O`, the “% Inhibition @ 10 uM” value falls from 4.86% to -0.478%.

First: O=C(CCNS(=O)(=O)c1cccc2nsnc12)N1CC(=O)N(CCc2ccccc2)C(=O)C1
Second: CNS(=O)(=O)c1cn(CC(=O)NCCc2ccccc2)cc1S(=O)(=O)NC
The “% Inhibition @ 10 uM” value of the first is higher: 0.457% for the first, -2.87% for the second.

Going from `Cc1ccc(C)c2c(N)c3c(nc12)CCCCC3` to `COc1ccc2c(c1)CCc1c(C(=O)Nc3sc4c(c3C#N)CCCC4)noc1-2`, the “% Inhibition @ 10 uM” value falls from -6.46% to -10.8%.

Going from `Brc1ccccc1OCCCCN1CCOCC1` to `Cc1sc(NC(=O)c2ccccc2)c(C(c2ccncc2)N2CCOCC2)c1C` (centres unmarked), the “% Inhibition @ 10 uM” value rises from -8.37% to 0.145%.

Going from `O=C(O)C(=O)Cc1ccccc1` to `C=CCn1c(SCc2ccccc2)nc2c1c(=O)[nH]c(=O)n2C`, the “% Inhibition @ 10 uM” value rises from -3.78% to 3.05%.

Going from `FC(F)(F)c1ccc(N2CCN(c3ccccc3)CC2)nc1` to `Cc1cccn2cc(CNC(=O)c3ccccc3C(F)(F)F)nc12`, the “% Inhibition @ 10 uM” value falls from 3.66% to 3.3%.

Going from `CC(CCc1ccccc1)NC(=O)C1CCN(c2ncnc3c2nc2n3CCCCC2)CC1` (centres unmarked) to `CCC(C)NC(=O)C1CCN(C(=O)c2cc3sccc3n2Cc2ccc(F)cc2)CC1` (centres unmarked), the “% Inhibition @ 10 uM” value falls from 1.66% to -1.58%.

Going from `Cc1c(CC(=O)O)c(=O)oc2cc3occ(C(C)(C)C)c3cc12` to `Cc1nn(CC(=O)NCCN(C)C)c(=O)c2nn(-c3ccccc3)c(C)c12`, the “% Inhibition @ 10 uM” value rises from -6.29% to 3.49%.

Compared with `O=C(Nc1cccc(O)c1)/C(=C\c1ccsc1)NC(=O)c1ccccc1`, `CCOC(=O)C(NC(=O)/C(=C\c1ccccc1F)NC(=O)c1ccccc1)C(C)C` (centres unmarked) is lower in “% Inhibition @ 10 uM” value: 1.4% for the first, -0.582% for the second.

Going from `CC(=O)C1=C(C)NC(SCC(N)=O)=C(C#N)C1c1ccncc1` (centres unmarked) to `C=CCN1C(=O)/C(=C\c2ccc(F)cc2)C(C(=O)OCC)=C1C`, the “% Inhibition @ 10 uM” value rises from -6.6% to -0.267%.

Going from `Cc1ccc2[nH]c3c(Cl)ncnc3c2c1` to `Cc1cc(Br)ccc1NC(=O)c1sc2nc(-c3ccncc3)ccc2c1N`, the “% Inhibition @ 10 uM” value rises from -1.6% to -1.22%.

Going from `CC1=C(C(=O)OCCOc2ccccc2)C(c2ccc(Cl)cc2Cl)CC(=O)N1` (centres unmarked) to `CCOC(=O)C1=C(CN2CCN(C3CCCCC3)CC2)NC(=O)NC1c1ccccc1` (centres unmarked), the “% Inhibition @ 10 uM” value rises from -1.62% to -1.3%.

Compared with `COC(=O)c1c(NC(=O)C(=O)NCCCn2ccnc2C)sc(C)c1C`, `COC(=O)c1c(NC(=O)c2cncc(Br)c2)sc2c1CCC(C)C2` (centres unmarked) is lower in “% Inhibition @ 10 uM” value: 29.6% for the first, 0.343% for the second.

First: Cc1ccc(/C=C(\C#N)S(=O)(=O)c2ccccc2)o1
Second: CC(C)c1ccc(S(=O)(=O)NC(C)c2ccccc2)cc1 (centres unmarked)
The “% Inhibition @ 10 uM” value of the first is higher: 7.73% for the first, -1.56% for the second.

First: CC(C)Oc1cccc(-c2cc(C(=O)Nc3ccncc3)c3ccccc3n2)c1
Second: O=C(Cn1nc(Cc2ccncc2)c2ccccc2c1=O)Nc1cccnc1
The “% Inhibition @ 10 uM” value of the first is lower: -3.05% for the first, 21.1% for the second.

First: Cc1nc2c(-c3ccc(F)cc3)c(C)nn2c(C)c1CCC(=O)NC(C)CCc1ccco1 (centres unmarked)
Second: Cn1c(=O)c2c(nc3n(CCO)c(-c4ccc(F)cc4)cn23)n(C)c1=O
The “% Inhibition @ 10 uM” value of the first is lower: 1.26% for the first, 5.05% for the second.

First: Cc1[nH]nc2c1C(c1ccccc1OCc1cccc3ccccc13)C(C#N)=C(N)O2 (centres unmarked)
Second: N#CC1=C(N)Oc2[nH]nc(-c3ccccc3)c2C12C(=O)Nc1ccccc12 (centres unmarked)
The “% Inhibition @ 10 uM” value of the first is higher: 5.05% for the first, 2.01% for the second.

Compared with `CCCCC[n+]1cccc(C(=O)N2c3c(O)nc(NC(=O)C(C)C)nc3NC(C)C2C)c1` (centres unmarked), `COc1ccc(N(C(C)C(=O)Nc2cccc(OC)c2)S(C)(=O)=O)cc1` (centres unmarked) is higher in “% Inhibition @ 10 uM” value: -2.8% for the first, -0.185% for the second.

Going from `CCOC(=O)N1CCC(NC(Cc2ccccc2)c2ccccc2)CC1` (centres unmarked) to `CC12CN(Cc3ccccc3)CC(C)(CN(Cc3ccccc3)C1)C2=O`, the “% Inhibition @ 10 uM” value rises from -1.82% to 3.32%.

Compared with `CCOc1cccc2c1OC(c1cc(OC)c(OC)c(OC)c1)N1N=C(c3cccnc3)CC21` (centres unmarked), `Cc1oc(-c2ccc(C(=O)NC3CCCc4ccccc43)cc2)nc1CS(=O)c1ccccc1` (centres unmarked) is higher in “% Inhibition @ 10 uM” value: -1.46% for the first, 1.14% for the second.

Going from `CC(c1ccccc1)c1nnc(NC(=O)c2ccc3c(c2)OCO3)s1` (centres unmarked) to `Cc1ccccc1C(=O)Nc1ccc(S(=O)(=O)Nc2onc(C)c2C)cc1`, the “% Inhibition @ 10 uM” value falls from 19.6% to -0.000375%.

First: Cn1c(=O)c2c(ncn2CC(=O)Nc2nnc(COc3ccc(Cl)cc3)s2)n(C)c1=O
Second: CCSc1ncc(Cl)c(C(=O)N(Cc2cccs2)C2CCS(=O)(=O)C2)n1 (centres unmarked)
The “% Inhibition @ 10 uM” value of the first is lower: -4% for the first, -2.85% for the second.

First: Cc1c(/C=N/NC(N)=S)c2ccccc2n1C
Second: Cc1ccc(C2=[N+]([O-])C3(CCCCC3=O)N(O)C2(C)C)o1 (centres unmarked)
The “% Inhibition @ 10 uM” value of the first is higher: -0.386% for the first, -5.28% for the second.
